Results as given in PubChem BioAssay AID651820 (National Center for Advancing Translational Sciences (NCATS), 2012).
Hit rate of the full screen: of about 340,000 compounds, about 12,000 (3.5%) were called active. Inconclusive results, whose numbers are uncertain, are shown with a selection of clear calls. Calls come from the whole dose curve; as a rule, active = well fitted inhibition curve with a large enough effect; inconclusive = small, poorly fitted or top-dose-only effect, or another doubt; inactive = no such curve, though single readings can be large or run the other way. No potency is given beside an inconclusive call; the fits are too rough.

Assay: qHTS Assay for Inhibitors of Hepatitis C Virus (HCV)
Conditions: Huh7.5.1 HCVcc-Cre (HCVcc is cell-culture hepatitis C virus) infection, luciferase reporter, 44 h; activity change, negative = inhibition: at 41.8 µM (top of the series)
Outline: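 1,000 cells/well; 4 h culture; + compound; + HCVcc-Cre (~0.5 moi); 44 h; luciferase substrate, RT 15 min; read 15 sec.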
% is set by controls: 0 for no effect and ±100 for the full control effect; potency is the fitted concentration of half-maximal effect; tags give direction and shape of the fitted curve.

Row | Compound | Potency | activity change, negative = inhibition
1 | Cc1ccc(-c2cc(C(F)(F)F)n3ncc(C(=O)N4CCCCC4c4cccnc4)c3n2)cc1 (centres undefined) | inconclusive [inhibitor, single point] | 
2 | Cc1cccc(N2CCN(C(=O)CCn3c(=O)[nH]c4ccccc4c3=O)CC2)c1C | inconclusive [inhibitor, single point] | 
3 | Cc1[nH]c(=O)[nH]c(=O)c1S(=O)(=O)N1CCCC(C(=O)NCCc2ccc(Cl)cc2)C1 (centres undefined) | inactive | 
4 | Oc1ccccc1C=NC(c1ccccc1)C(O)c1ccccc1 (centres undefined) | inconclusive [inhibitor, single point] | 
5 | Cn1c(=O)c2c(nc(CN3CCN(C(=O)c4ccco4)CC3)n2CCCc2ccccc2)n(C)c1=O | inactive | 
6 | COC(C[C@@H](O)CC(=O)COCc1ccccc1)OC | active: 2.82 µM | 
7 | C=Cc1c(C)c2cc3[nH]c(cc4nc(cc5nc(cc1[nH]2)C(C)=C5CCC(=O)O)C(CCC(=O)O)=C4C)c(C)c3C=C | inactive | 
8 | CC1CN(S(=O)(=O)c2cccc(C(=O)N(Cc3nnc(-c4ccccc4Cl)o3)C3CC3)c2)CC(C)O1 (centres undefined) | inconclusive [inhibitor, partial curve] | 
9 | CCOc1ccc(OCC)c(S(=O)(=O)NCCOC23CC4CC(CC(C4)C2)C3)c1 | active: 10 µM | 
10 | CCC(=O)c1ccc(OCC(=O)Nc2cc(S(=O)(=O)N3CCCCC3)ccc2OC)cc1 | active: 11.2 µM | 
11 | O=C(NNC(=O)c1ccccc1F)c1cccc(S(=O)(=O)N2CCc3ccccc32)c1 | inconclusive [inhibitor, single point] | 
12 | CCc1ccc(Nc2nc(N)nc(CSc3nc4ccccc4s3)n2)cc1 | inactive | 
13 | C=CCc1cccc(/C=N/NC(=O)c2ccccc2OC)c1O | inconclusive [inhibitor, single point] | 
14 | COc1ccccc1CN1CC(=O)N2CSC[C@H]2C1=O | inactive | 
15 | C/C=C/c1ccc(OCC(O)CN2CCCCC2CC)c(OC)c1 (centres undefined) | active: 2.51 µM | 
16 | COc1ccc(NC(=O)/C=C/c2cccc(Br)c2)cn1 | inconclusive [inhibitor, single point] | 
17 | O=S(=O)(Nc1ccccc1)c1ccc(S(=O)(=O)N2CCCC2)cc1 | inactive | 
18 | CC(=O)c1ccc(NC(=O)c2cc3nc4c(c(C(F)(F)F)n3n2)CCCC4)cc1 | inconclusive [inhibitor, full curve, poor fit] | 
19 | CCOc1ccc(CNC(=O)c2ccc(Sc3ccc(Cl)cc3)c(NC(C)=O)c2)cc1OC | active: 12.6 µM | 
20 | COc1ccc(NC(=O)c2ccc(NC(=O)CSc3nc(N)cc(=O)[nH]3)cc2)cc1 | inconclusive [inhibitor, single point] | 
21 | CC(C)[n+]1ccn(C2=C([O-])c3ccccc3C(=O)/C2=N\S(=O)(=O)c2ccccc2)c1 |  | inconclusive: -79.4% [inhibitor]
22 | CC(=O)N1CC[n+]2c(-c3ccc(Cl)cc3Cl)csc21 | inactive | 
23 | Oc1ccc(/C=N/Nc2nc(N3CCCCCC3)nc(N3CCCCCC3)n2)c(O)c1 | inconclusive [inhibitor, partial curve] | 

Row | Compound | Potency | activity change, negative = inhibition
24 | COC(=O)c1ccc(-c2csc(NC(=O)c3ccc(S(=O)(=O)N4CCc5ccccc5C4)cc3)n2)cc1 | inconclusive [inhibitor, full curve, poor fit] | 
25 | COc1ccc(C2=NCCn3nc4cc([N+](=O)[O-])ccc4c32)cc1 | inconclusive [inhibitor, full curve, poor fit] | 
26 | Cc1ccc(S(=O)(=O)NC(=O)Nc2ccccc2)cc1 | inactive | 
27 | Cc1ccc(N=Cc2cc(Cl)cc(Cl)c2O)nc1 | inconclusive [inhibitor, single point] | 
28 | CCCN(CC(=O)Nc1ccc(F)c(F)c1F)C(=O)Cc1ccc(OC)c(S(=O)(=O)N2CCOCC2)c1 | inactive | 
29 | Cc1c(O)ccc(-c2[nH]ncc2-c2nc3ccccc3s2)c1O | inconclusive [inhibitor, partial curve] | 
30 | Cc1csc2c(N3CCC(C(=O)O)CC3)ncnc12 | inactive | 
31 | COC(=O)C1=C(N)N(c2ccccc2C(F)(F)F)C2=C(C(=O)CCC2)C1c1ccc2c(c1)OCO2 (centres undefined) | inconclusive [inhibitor, single point] | 
32 | COc1ccc(Cn2nnnc2C(C(C)C)N2CCN(c3ccccc3OC)CC2)cc1 (centres undefined) | inconclusive [inhibitor, single point] | 
33 | COc1cc(NC(=O)c2cnc(N)s2)cc(C(=O)Nc2cccc(C(F)(F)F)c2)c1 | inconclusive [inhibitor, single point] | 
34 | O=C(C1CCCN(S(=O)(=O)c2ccc(Br)s2)C1)N1CCN(c2ccccc2)CC1 (centres undefined) | active: 10 µM | 
35 | CC(=O)C1=NN(c2ccccc2)C(c2cccs2)N1c1ccc(N(C)C)cc1 (centres undefined) | inconclusive [inhibitor, single point] | 
36 | O=C(Nc1cccc(NC(=O)c2cccnc2)c1)c1cccnc1 | inactive | 
37 | Cc1c(C)n(C)c2ccc(C(=O)NCCCN3CCN(c4ccc(F)cc4)CC3)cc12 | inconclusive [inhibitor, partial curve] | 
38 | CCOc1ccc(S(=O)(=O)N2CCC(C(=O)N3CCCCCC3)CC2)cc1C | inconclusive [inhibitor, single point] | 
39 | COc1cc2cc(CCOC(=O)c3ccc(F)cc3)oc(=O)c2cc1OC | inconclusive [inhibitor, single point] | 
40 | N#Cc1ccccc1NC(=O)C1SC(=Nc2ccccc2)C(C(=O)Nc2ccc(Cl)cc2)=C1N (centres undefined) | active: 10 µM | 
41 | CCc1nnc(NC(=O)C2CCN(S(=O)(=O)Cc3ccccc3)CC2)s1 | inconclusive [inhibitor, single point] | 
42 | COc1cc(NC(=O)c2ccccc2)c(OC)cc1NC(=O)CN1C(=O)NC2(CCCCC2)C1=O | inconclusive [inhibitor, partial curve] | 
43 | CC(C)(C)C(=O)Cn1c(=N)n(Cc2ccccc2)c2ccccc21 | inconclusive [inhibitor, single point] | 
44 | COc1ccc(N(CC(=O)Nc2ccc3c(c2)OCO3)S(=O)(=O)c2ccccc2)c(OC)c1 | inconclusive [inhibitor, full curve, poor fit] | 
45 | COC(=O)c1c(NC(=O)CN2CCCc3ccccc32)sc(C)c1C | inconclusive [inhibitor, full curve] | 
46 | CC(Oc1cccc(Cl)c1)C(=O)Nc1cc(Cl)ccc1N1CCOCC1 (centres undefined) | inconclusive [inhibitor, single point] | 

Row | Compound | Potency | activity change, negative = inhibition
47 | CCOC(=O)Cc1csc(NC(=O)c2ccc(C)cc2)n1 | inactive | 
48 | Cc1ccc(NC(=O)c2cccnc2)cc1S(=O)(=O)N1CCOCC1 | inconclusive [inhibitor, single point] | 
49 | O=C1c2ccccc2CN1CCNC(=S)NC1CCCCC1 | inactive | 
50 | CN(C)c1ccc(C2NCC(CCl)O2)cc1 (centres undefined) | inconclusive [inhibitor, single point] | 
51 | COc1ccc(CN2C3CCCC2CC(NC(=O)Nc2cccc(C)c2)C3)cc1 (centres undefined) | inconclusive [inhibitor, single point] | 
52 | CCOC(=O)COc1ccccc1C1Nc2ccccc2C(=O)N1c1cccc(Cl)c1 (centres undefined) | inactive | 
53 | COc1ccc(CCN2CCCn3c2nc2c3c(=O)n(CC(C)C)c(=O)n2C)cc1OC | active: 10 µM | 
54 | COCCN(C(=O)CCC(=O)Nc1nccs1)C(C(=O)NC(C)(C)C)c1ccc(F)cc1 (centres undefined) | inactive | 
55 | O=C1CCC(O)CCN1CCSc1ccccc1 (centres undefined) | inactive | 
56 | CCC(=NCc1ccc2c(c1)OCO2)c1c(O)n(C2CCCCC2)c(=O)[nH]c1=O | inconclusive [inhibitor, single point] | 
57 | COc1cccc(C2=NOC(C(=O)Nc3cc(C)on3)C2)c1OC (centres undefined) | inconclusive [inhibitor, single point] | 
58 | Cc1ccc2nc(SC(C)C(=O)NC3CCCc4ccccc43)[nH]c2c1 (centres undefined) | inconclusive [inhibitor, single point] | 
59 | CCn1nccc1C(=O)Nc1ccc(Cl)cn1 | inactive | 
60 | CC12CCC(=O)N1C(C(=O)Nc1nc(-c3cc(F)ccc3F)cs1)CS2 (centres undefined) | inconclusive [inhibitor, partial curve] | 
61 | COc1ccccc1NC(=O)c1cc(S(=O)(=O)N2CCCCCC2)ccc1F | inconclusive [inhibitor, single point] | 
62 | COC(=O)C1=C(c2ccccc2OCc2ccccc2)C[C@@H]2CC[C@H]1N2C(=O)NCCOc1ccccc1 | inconclusive [inhibitor, partial curve] | 
63 | Cc1nc(N)ncc1C(=O)Nc1ccccc1 | inactive | 
64 | COC(=O)c1c(C)oc2ccc(N(C(=O)c3ccncc3)S(=O)(=O)c3ccc(C)cc3)cc12 | inconclusive [inhibitor, partial curve] | 
65 | CC(C(=O)Nc1ccccc1Br)c1ccc([N+](=O)[O-])cc1 (centres undefined) | inconclusive [inhibitor, single point] | 
66 | O=C(CSc1ccc2nnc(-c3ccc(F)cc3)n2n1)NCC1CCCO1 (centres undefined) | inactive | 
67 | CCOc1nc(Nc2ccc([N+](=O)[O-])cc2)nc(NC(C)(C)C)n1 | inconclusive [inhibitor, partial curve] | 
68 | S=C(Nc1ccccc1)N1CCN(C/C=C/c2ccccc2)CC1 | inconclusive [inhibitor, single point] | 
69 | CC(=O)C1=NN(c2ccccc2)C(c2ccc3c(c2)OCO3)N1c1ccc(N2CCOCC2)cc1 (centres undefined) | inconclusive [inhibitor, partial curve] | 
